{"source": "the supplement of paper PMC11417369", "note": "± gives the standard deviation of the averaged measurements. Some of the results follow.", "data": [{"test_system": "PfAP2-G AP2 domain (GST-tagged)", "assay": "gcPBM binding intensity (ln(normalized median fluorescence intensity)); higher = stronger DNA binding", "in_short": "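In this array assay, P. falciparum DNA-binding domains with a GST tag, expressed in E. coli, were applied for 1 h to primer-extended double-stranded 36-bp intergenic genomic probes and negative controls on an Agilent 4 × 180k array. Bound protein was visualised with Alexa488 anti-GST antibody at 488 nm. Binding intensity is the highest Masliner-normalised natural-log median intensity across replicate spots of either probe orientation.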", "values": [{"sequence": "TTGAATGTAGTTAAATGTACATGTAATATATAAAAA [XGTACX_site1250]", "gcPBM binding intensity (ln)": "11.2 ± 0.68"}, {"sequence": "TTTGTTTTAAATCGAAGTACACATAATTATATTTTA [XGTACX_site1541]", "gcPBM binding intensity (ln)": "11.3 ± 0.88"}, {"sequence": "AAAAAAAAAAAAAAAATACACACGTGAATGTATTGT [CACACA_site1320]", "gcPBM binding intensity (ln)": "10.3 ± 0.085"}, {"sequence": "AAATAACACATATATACACACATATAAATATAATAT [CACACA_site2692]", "gcPBM binding intensity (ln)": "10.1 ± 0.16"}, {"sequence": "AAAAAACTTATAATCACACATATGATTAAATATTAA [CACACA_site4956]", "gcPBM binding intensity (ln)": "9.685 ± 0.092"}, {"sequence": "ATAGGACCTATGTGCCCATGGGTACATTAAAAAAAA [CACACA_negctrl_site1465]", "gcPBM binding intensity (ln)": "11.5 ± 0.99"}, {"sequence": "CATTATGTCATAAATGCACACATATACATTGTTTTG [CACACA_site8118]", "gcPBM binding intensity (ln)": "10.04 ± 0.092"}, {"sequence": "TAATGTATGAAATAAACACACAAGTAAGTACATAAA [CACACA_site2451]", "gcPBM binding intensity (ln)": "11.6 ± 0.98"}, {"sequence": "ATATATTTTATTCCTATATATATATATATATATATA [GTGCAC_negctrl_site556]", "gcPBM binding intensity (ln)": "9.98 ± 0.32"}, {"sequence": "AATAAATTATTTATTGCATGTAATATGAATATTTTT [TGCATGCA_site798]", "gcPBM binding intensity (ln)": "9.91 ± 0.16"}, {"sequence": "AAAACACCCAAACACACACACACATATATATATATA [CACACA_site9119]", "gcPBM binding intensity (ln)": "10.2 ± 0.44"}, {"sequence": "TTCTTGTATTTTCATAGTACATATAATGTCGTGTTA [XGTACX_site7714]", "gcPBM binding intensity (ln)": "10.8 ± 0.52"}, {"sequence": "TCTGTAGTTTTTTACAGTACTTTTAGGTAATACATA [XGTACX_site7417]", "gcPBM binding intensity (ln)": "11 ± 0.79"}, {"sequence": "AGAAAAAAAATATACACACATACGATCATACATATG [CACACA_site2171]", "gcPBM binding intensity (ln)": "10.2 ± 0.13"}, {"sequence": "ACCTCTTTGAAATATACACACTAAACATATCAACTT [CACACA_site5372]", "gcPBM binding intensity (ln)": "10.1 ± 0.11"}, {"sequence": "TACATAGAGTTTGTTTGTACTCATATGCGTAAATTC [XGTACX_site4810]", "gcPBM binding intensity (ln)": "11.2 ± 0.79"}, {"sequence": "AGGATACACGGACACACACACATATAGATTTATATA [CACACA_site6552]", "gcPBM binding intensity (ln)": "11.2 ± 0.78"}, {"sequence": "TTTTTATTTTTTTTATGTACACAAATGATATACATA [XGTACX_site5910]", "gcPBM binding intensity (ln)": "11.4 ± 0.73"}, {"sequence": "TTTCTTTTTTTTTTTTTTTCTGGCTTTTTCTCTTTT [TGCATGCA_negctrl_site599]", "gcPBM binding intensity (ln)": "9.6 ± 0.085"}, {"sequence": "TATATTACTTAAAATACACACCATGGAAAAGTTTTA [CACACA_site5443]", "gcPBM binding intensity (ln)": "10.1 ± 0.17"}, {"sequence": "ATTATTTTTCTATGTGTGCACGTGTGGAATGTGTCT [GTGCAC_site9507]", "gcPBM binding intensity (ln)": "10.8 ± 0.51"}, {"sequence": "TTCTGAACAAAATTATATATTTATTTTTATTTTCAT [CACACA_negctrl_site422]", "gcPBM binding intensity (ln)": "9.54 ± 0.33"}, {"sequence": "ATAAGATGATGGAACTGTAATATATATATATATATA [CACACA_negctrl_site839]", "gcPBM binding intensity (ln)": "9.88 ± 0.42"}, {"sequence": "TTTAAGAGTTGCACACGTACAAAAAAAAAAAAAAAA [XGTACX_site7406]", "gcPBM binding intensity (ln)": "11.2 ± 1"}, {"sequence": "TTGTATACATAAAATGGTACAGAATATATAATTCTA [XGTACX_site7236]", "gcPBM binding intensity (ln)": "10.8 ± 0.57"}, {"sequence": "GTATACCAACATATTATACACACCTTTATATTTTTT [CACACA_site2153]", "gcPBM binding intensity (ln)": "10.09 ± 0.042"}, {"sequence": "ATTTTTTTCTTTTCTTTTTTCTTTTTTTTTTTTGGT [CACACA_negctrl_site1146]", "gcPBM binding intensity (ln)": "9.72 ± 0.18"}, {"sequence": "GTAATGAAACATTGCACACATATAATAATATAATAT [CACACA_site1422]", "gcPBM binding intensity (ln)": "10.06 ± 0.064"}, {"sequence": "TTAATTAAAATTTATACATGCATAAAAGAAATACAC [TGCATGCA_site537]", "gcPBM binding intensity (ln)": "10.4 ± 0.48"}, {"sequence": "ATTACATGTTACTTAACACACATCTGGTGAAATAAT [CACACA_site171]", "gcPBM binding intensity (ln)": "9.94 ± 0.15"}, {"sequence": "TTTTTATATTCCCCCAGTACATATATAATAGTAGTA [XGTACX_site7927]", "gcPBM binding intensity (ln)": "11.3 ± 0.76"}, {"sequence": "TTATACTGTTTCAGAAAAATAAAGAATGAAAGTATT [XGTACX_negctrl_site230]", "gcPBM binding intensity (ln)": "10 ± 0.18"}, {"sequence": "TATTTTAATGAAGCATTTAAGGGAAAAAAAAAAAAA [TGCATGCA_negctrl_site606]", "gcPBM binding intensity (ln)": "9.71 ± 0.45"}, {"sequence": "TGCAACAAAATAAACACACACACACCCCCACAAAAA [CACACA_site3388]", "gcPBM binding intensity (ln)": "11.1 ± 0.67"}, {"sequence": "AATAAAAAAATAAAATGTACATACAAATAAATAAAT [XGTACX_site5153]", "gcPBM binding intensity (ln)": "11.1 ± 0.48"}, {"sequence": "ATAATACAAAAAAAAAAAAAAAATAAAATAATAAAA [GTGCAC_negctrl_site722]", "gcPBM binding intensity (ln)": "9.52 ± 0.11"}, {"sequence": "ATTTTTTCTGTCTTAATTGGACCCACTGCAAATGGG [CACACA_negctrl_site1158]", "gcPBM binding intensity (ln)": "10.9 ± 0.54"}, {"sequence": "TATTTTTAAATATAAAGTACTTATATTAACTACGAA [XGTACX_site1524]", "gcPBM binding intensity (ln)": "11.2 ± 0.62"}, {"sequence": "AAGTAATACAACACGCACATATATATATATATATAT [GTGCAC_negctrl_site89]", "gcPBM binding intensity (ln)": "10.4 ± 0.5"}, {"sequence": "TACCTAAATAAATGGACACACACATATATATATATA [CACACA_site8407]", "gcPBM binding intensity (ln)": "10.8 ± 0.53"}, {"sequence": "TTATAGCCTGTGAAGAGTACATTTTTATTTTTTATT [XGTACX_site4105]", "gcPBM binding intensity (ln)": "11.1 ± 0.7"}, {"sequence": "TACAAAATATATATGACACACACAAAAAAAGTATAT [CACACA_site8455]", "gcPBM binding intensity (ln)": "10.27 ± 0.092"}, {"sequence": "TATTTTTCCATTGGGGGTACATGTGTTATATTTATT [XGTACX_site5914]", "gcPBM binding intensity (ln)": "11.7 ± 0.88"}, {"sequence": "AGACGAAAATAATAAAGTACTAAAAAAAAAAAAAAA [XGTACX_site927]", "gcPBM binding intensity (ln)": "10.9 ± 0.92"}, {"sequence": "TTCATATATTTTAAAGCATGCATTCATCTTATAGTT [TGCATGCA_site800]", "gcPBM binding intensity (ln)": "9.67 ± 0.27"}, {"sequence": "TTTACGCTATAGGAGAGTACTTATAAAATCCTGTGT [XGTACX_site2364]", "gcPBM binding intensity (ln)": "11 ± 0.66"}, {"sequence": "ATATATATGCATATATGTACTTAAAATATAAAGGCA [XGTACX_site3256]", "gcPBM binding intensity (ln)": "11.2 ± 0.73"}, {"sequence": "GAGAAAGATATATACACACACATAAATATGTACATA [CACACA_site6975]", "gcPBM binding intensity (ln)": "11.3 ± 0.81"}, {"sequence": "GATATCAAATATAAATGTACAAATTATATATACATA [XGTACX_site3228]", "gcPBM binding intensity (ln)": "10.7 ± 0.47"}, {"sequence": "TTCTTATTTATTTTCTTCTCCTTCCTCAAATTTTTT [GTGCAC_negctrl_site592]", "gcPBM binding intensity (ln)": "9.73 ± 0.11"}, {"sequence": "AATTTGTTAATATTTTGTACACATAATATAAAAACA [XGTACX_site2224]", "gcPBM binding intensity (ln)": "11.3 ± 0.89"}, {"sequence": "TTTCCCAAGCTTATTACACACAAGTAGAATAAGCTT [CACACA_site1561]", "gcPBM binding intensity (ln)": "9.9 ± 0.18"}, {"sequence": "TATATAGGTAAAAAATGTACTTATATTGAATATATT [XGTACX_site4414]", "gcPBM binding intensity (ln)": "11.2 ± 0.71"}, {"sequence": "TTTACAATATTAAAATGTACATATAAAATAAATAAA [XGTACX_site8367]", "gcPBM binding intensity (ln)": "11 ± 0.49"}, {"sequence": "TTTACAATATAAAATACACACACACTAACATATATT [CACACA_site9231]", "gcPBM binding intensity (ln)": "10.01 ± 0.042"}]}]}
